# Source: PubChem BioAssay AID488969 (Vanderbilt High Throughput Screening Facility, 2010)
# Whole data set: some 110,000 compounds, median “z-score” near -0.1, cut for the highest 2% near 2. The list shows a part of the results. Activity calls are given as the source filed them.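 Rule for the calls: active = z-score in the third read window above 3 or below -3; inactive = the rest.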
# Molecular target: Metabotropic glutamate receptor 8 (Rattus norvegicus) (UniProt P70579)
# Assay: rat mGluR8 modulators via GIRK flux, primary screen, cell-based, thallium flux, HTS (AID 488969)
# Conditions: HEK293 rat mGluR8, GIRK (G protein-gated inwardly rectifying potassium channel) thallium flux, FluoZin2; at 10 µM; stronger effect = higher value; submaximal glutamate (EC20) added with thallium
# Chain of UniProt P70579 (P70579 whole entry, looked up): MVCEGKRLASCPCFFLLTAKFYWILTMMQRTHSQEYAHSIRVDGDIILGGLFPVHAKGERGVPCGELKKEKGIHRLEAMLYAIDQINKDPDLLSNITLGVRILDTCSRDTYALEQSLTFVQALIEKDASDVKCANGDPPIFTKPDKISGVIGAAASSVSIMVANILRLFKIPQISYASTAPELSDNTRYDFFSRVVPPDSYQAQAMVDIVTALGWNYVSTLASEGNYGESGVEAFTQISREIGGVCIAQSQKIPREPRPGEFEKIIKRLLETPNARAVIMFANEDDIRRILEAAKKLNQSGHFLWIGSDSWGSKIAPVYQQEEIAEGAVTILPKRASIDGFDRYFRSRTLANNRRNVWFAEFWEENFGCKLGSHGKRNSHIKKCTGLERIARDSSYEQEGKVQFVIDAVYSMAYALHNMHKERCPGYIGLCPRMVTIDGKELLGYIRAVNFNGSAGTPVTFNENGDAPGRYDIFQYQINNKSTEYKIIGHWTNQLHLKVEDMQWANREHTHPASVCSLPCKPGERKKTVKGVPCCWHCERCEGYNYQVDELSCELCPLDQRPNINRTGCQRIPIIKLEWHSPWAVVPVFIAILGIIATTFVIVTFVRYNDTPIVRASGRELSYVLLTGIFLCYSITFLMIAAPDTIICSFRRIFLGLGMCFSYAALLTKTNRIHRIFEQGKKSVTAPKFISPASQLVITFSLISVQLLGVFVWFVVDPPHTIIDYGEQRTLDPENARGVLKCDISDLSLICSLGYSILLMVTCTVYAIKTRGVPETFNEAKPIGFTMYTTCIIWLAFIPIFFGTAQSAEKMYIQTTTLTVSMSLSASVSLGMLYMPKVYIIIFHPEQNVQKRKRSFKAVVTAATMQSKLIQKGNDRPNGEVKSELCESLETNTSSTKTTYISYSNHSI
row,SMILES,z-score
1,O=[N+]([O-])c1ccccc1/C=C/CN1CCCCC1,-0.0326
2,CC(C)OCCCNC(=O)CNC(=O)c1cccs1,1.05
3,CCOC(=O)c1ccc(-n2nc(C(F)(F)F)c3c(C)cc(=O)oc32)cc1,0.309
4,CCOC(=O)/C(C#N)=C/c1cn(CCOc2ccc(OC)cc2)c2ccccc12,-0.109
5,CC(NC(=O)C1CCCN(C(=O)N(C)C)C1)c1ccccc1 (stereo not given),0.19
6,CCOc1ccc(S(=O)(=O)N2CCN(C)CC2)c(C)c1C,0.117
7,COc1ccc(NC(=O)CSc2nc(O)c(Cc3ccccc3)c(=O)[nH]2)cc1,0.339
8,Cc1ccc(S(=O)(=O)N/N=C2/CC(c3ccccc3)Oc3ccccc32)cc1[N+](=O)[O-] (stereo not given),0.0121
9,COc1ccc(-n2nc(C(=O)Nc3nc4ccc(OC)cc4s3)c3ccccc3c2=O)c(OC)c1,-0.0289
10,Cc1cc(C(=O)COc2nncc3ccccc23)c(C)n1C,0.0547
11,Cc1ccc(S(=O)(=O)NC(C)CCc2ccccc2)cc1 (stereo not given),-0.846
12,Oc1ccccc1Nc1ncnc2c1oc1ccccc12,-0.536
13,O=C1[C@@H]2[C@H](Cc3ccc(O)cc3)N[C@]3(C(=O)Nc4ccccc43)[C@@H]2C(=O)N1c1ccc(F)cc1,-0.384
14,CCOC(=O)C1CCN(C(=O)COC(=O)COc2ccccc2OC)CC1,-0.568
15,CSc1ccc(C2Nc3ccccc3-c3cc(C)nn32)cc1 (stereo not given),0.909
16,Cc1onc(-c2ccccc2Cl)c1C(=O)NCc1cccs1,-0.426
17,CC1CCCCN1S(=O)(=O)c1ccc(N(C(=O)c2cnccn2)C(C(=O)NC2CCCC2)c2cccs2)cc1 (stereo not given),-0.162
18,COc1ccccc1CNC(=O)COC(=O)c1cnccn1,-0.203
19,CC(C)n1c(O)c(N=Nc2ccc(Cl)nn2)c2ccccc21,active: 3.42
20,CCOc1cccc(C(=O)Nc2cccc(-c3nnc(-c4ccccc4)o3)c2)c1,-0.403
21,Cc1nc2cc(-c3ccccc3)nn2c(C)c1CCC(=O)N1CCN(c2ccccc2)CC1,-0.274
22,O=C(O)CSc1c(-c2cccs2)[nH]c2ccccc12,-0.0174
23,CCOc1ccc(OCCOCCn2ccnc2)cc1,0.0615
24,CN(CC(=O)Nc1ccc(S(N)(=O)=O)cc1)c1ccccc1,0.147

row,SMILES,z-score
1,O=C(CC12CC3CC(CC(C3)C1)C2)NCCN1CCOCC1,0.208
2,Cc1ccc(S(=O)(=O)N(NC2=NS(=O)(=O)c3ccccc32)C(=O)c2ccccc2)cc1,-0.0119
3,O=C(NC(=S)N(Cc1ccccc1)c1ccccn1)C1CC1,0.0087
4,O=C(c1ccc(=O)oc1)N1CCOCC1,0.868
5,O=C(NCc1ccco1)Nc1ccccc1Cl,-0.581
6,CCN(CC)C(=O)CSc1nc2nc(C)cc(C)c2c(=O)[nH]1,-1.25
7,c1ccc(COCCN2CCN(CCOCc3ccccc3)CC2)cc1,0.0701
8,CC(OC(=O)C(NC(=O)c1ccco1)C(C)C)C(=O)Nc1ncc(Cl)cc1Cl (stereo not given),-0.132
9,Cc1cc(NC(=O)c2cc(Cl)ccc2Cl)no1,0.273
10,O=C(NC1CCS(=O)(=O)C1)c1c(NC(=O)C2COc3ccccc3O2)sc2c1CCCC2 (stereo not given),-0.429
11,CCOC(=O)N1CCN(C(=O)C2CCN(S(=O)(=O)N3CCCC3)CC2)CC1,-0.228
12,Cc1ccc(C(=O)NNC(=O)CCC(=O)Nc2cccc(Cl)c2C)cc1,-0.265
13,CC(C)(C)c1ccc(C2C3=C(CCCC3=O)NC3=C2C(=O)c2ccccc23)cc1 (stereo not given),-0.071
14,COc1cc(C(=O)/C=C/Nc2ccc(NC(C)=O)cc2)cc(OC)c1OC,0.433
15,CCN1CCN(c2cc(C)c3cc(NC(=O)Cc4ccccc4OC)ccc3n2)CC1,0.0706
16,COC(=O)C1C(=O)CC(C)(O)C(C(=O)OC)C1/C=C/c1ccccc1 (stereo not given),-0.0609
17,Cc1oc(-c2nc3ccccc3n2C)cc1C(=O)c1ccccc1,-1.1
18,COc1ccc(NC(=O)C2CC(=O)n3ncnc3N2)cc1 (stereo not given),-0.061
19,Cc1nc(C)c(C(=O)Nc2cccc(Cl)c2)o1,0.108
20,COc1ccc(C(=O)Nc2ccccc2)cc1S(=O)(=O)Nc1cc(C)on1,active: -3.66
21,C(=N/Nc1nc(-c2ccccc2)cc(-c2ccccc2)n1)/c1cccnc1,-0.366
22,CN(CC(=O)NC1CCCCC1)S(=O)(=O)c1ccc(Br)s1,-0.609
23,CC(C)[C@H](NC(=O)c1ccccc1)C(=O)OCC(=O)NCCc1ccc(F)cc1,-0.349
24,CCc1ccccc1NC(=O)CSc1nc2ccccc2n1CC(=O)N1CCCC1,-0.11

row,SMILES,z-score
1,CCn1c(SCC(=O)NCCOc2ccccc2)nc2ccccc2c1=O,-1.46
2,Cc1ccc2cc(C#N)c(SCC(=O)N3CCCc4ccccc43)nc2c1C,-0.174
3,Cc1ccc2c(C)c(C(=O)Nc3c(C)n(C)n(-c4ccccc4)c3=O)oc2c1C,-0.159
4,CCCn1nnnc1NCc1cccn1C,1.98
5,O=C(O)C1CCCN(S(=O)(=O)c2ccc(Cl)s2)C1 (stereo not given),-0.387
6,Cc1ccc(S(=O)(=O)c2nc(Nc3ccccc3C#N)sc2Cl)cc1,-0.235
7,COc1ccc(C2Nc3ccccc3C(=O)N2Cc2ccccc2)cc1COc1ccccn1 (stereo not given),-0.3
8,CCOC(=O)c1sc(NC(=O)CSc2nnc(C(C)C)n2C)nc1C,-0.312
9,COC(=O)c1ccc(-c2ncc(-c3cccc4ccccc34)o2)cc1,-0.151
10,COc1ccc(Cc2nnc(N/N=C/c3ccccc3O)[nH]c2=O)cc1OC,-0.245
11,CN1C(=O)C2(C(C#N)=C(N)N(c3ccc(Cl)cc3)C3=C2C(=O)CC(C)(C)C3)c2ccccc21 (stereo not given),-0.197
12,O=C(c1cc2ccccn2n1)N1CCN(Cc2ccccc2)CC1,-0.124
13,CCN=C1SC(CC(=O)NCCc2ccc(OC)c(OC)c2)C(=O)N1CC (stereo not given),0.523
14,CC1(C)Cc2ccccc2-c2nnc(SCC(=O)N3CCc4ccccc43)n21,-1.17
15,O=C(CN1C(=O)c2ccccc2S1(=O)=O)NCc1ccccc1Cl,-0.294
16,Cc1noc(C)c1C(=O)NCc1ccccc1,-0.239
17,O=C(CSC1CCCCC1)Nc1ccccc1Br,0.0884
18,COc1ccc(-c2nc(CS(=O)CC(=O)NCCC3=CCCCC3)c(C)o2)cc1 (stereo not given),-0.366
19,CCOC(=O)NC(=O)CSc1nnc(C)s1,-0.499
20,CCOC(=O)c1cnc2c(OC)cccc2c1Nc1ccc2c(c1)OCCO2,-0.685
21,O=C(Nc1ccc(F)cc1)c1ccccc1F,-0.129
22,CC(C)(C)c1cc(NC(=O)COc2ccc(Br)cc2)n(-c2ccccc2)n1,-0.0938
